# PubChem BioAssay AID360 (National Center for Advancing Translational Sciences (NCATS), 2006)
# Among all 48,000 compounds or so, about 550 (1.1%) were called active. About 4% were inconclusive and are not listed. Cut-off read from the data, not from the text of the source: active = potency below about 15 µM; inconclusive = mostly about 16 µM to 33 µM; inactive = weaker than that. The list shows a part of the results.
# Target: Lysosomal acid glucosylceramidase (Homo sapiens) (UniProt P04062)
# Assay: Glucocerebrosidase;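 note: the screen sought inhibitors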
# Details: purified enzyme, resorufin glucoside fluorescence (screen aimed at inhibitors), 20 min; series mostly up to 77 µM
# Method in brief: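 Compounds titrated against 0.2 nM normal enzyme, 30 uM resorufin beta-D-glucopyranoside substrate, citrate/phosphate buffer with taurocholate and tween-20, pH 5.9. Reaction ran 20 min at room temperature; fluorescence (Ex 548/Em 600) gave AC50.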
# Potency is the fitted concentration of half-maximal effect.
# UniProt P04062, sequence (P04062 whole entry, looked up): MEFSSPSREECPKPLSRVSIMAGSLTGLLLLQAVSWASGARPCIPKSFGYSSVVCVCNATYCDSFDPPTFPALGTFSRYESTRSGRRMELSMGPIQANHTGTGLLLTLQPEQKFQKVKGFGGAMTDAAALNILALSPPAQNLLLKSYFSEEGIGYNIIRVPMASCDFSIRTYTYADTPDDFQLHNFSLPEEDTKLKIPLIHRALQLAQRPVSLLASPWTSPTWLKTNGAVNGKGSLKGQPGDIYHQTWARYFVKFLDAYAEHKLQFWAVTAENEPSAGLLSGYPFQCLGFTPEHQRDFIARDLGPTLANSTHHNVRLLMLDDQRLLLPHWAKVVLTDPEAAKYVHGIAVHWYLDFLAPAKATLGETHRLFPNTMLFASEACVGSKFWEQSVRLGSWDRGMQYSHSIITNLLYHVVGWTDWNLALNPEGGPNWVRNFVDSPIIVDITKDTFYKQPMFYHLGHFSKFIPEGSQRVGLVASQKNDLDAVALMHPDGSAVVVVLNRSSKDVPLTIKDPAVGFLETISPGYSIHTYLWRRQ
row,Structure (SMILES),Potency
1,CN(C)S(=O)(=O)c1cccc(C(=O)N(Cc2ccc(F)cc2)Cc2ccco2)c1,inactive: > 76.9 µM
2,COC(=O)C1=C(N)Oc2cc(C)n(CC3CCCO3)c(=O)c2C1c1ccccc1 (stereo not given),inactive: > 76.9 µM
3,Cc1cc(C(=O)NCc2cc(C(=O)O)oc2C)c(C)o1,inactive: > 76.9 µM
4,Cc1cccn2c(=O)c(C=Nc3ccccc3)c(NCCO)nc12,inactive: > 76.9 µM
5,COC(=O)C1=C(C)NC(=O)C1(NC(=O)c1cccnc1)C(F)(F)F (stereo not given),inactive: > 76.9 µM
6,Cc1noc(N)c1C(=O)Nc1ccc(F)cc1,inactive: > 76.9 µM
7,NC(=O)c1c(NC(NC(=O)c2ccco2)(C(F)(F)F)C(F)(F)F)sc2c1CCCC2,inactive: > 76.9 µM
8,CCOC(=O)C1C2C=CC3(CN(Cc4cccs4)C(=O)C13)O2 (stereo not given),inactive: > 76.9 µM
9,COc1ccc(C2CC(=O)C3=C(C2)Nc2ncnn2C3c2ccccc2C)c(OC)c1 (stereo not given),inactive: > 76.9 µM
10,CCOC(=O)c1c(NC(=O)CSc2ncn[nH]2)sc(C)c1C,inactive: > 76.9 µM
11,Cc1cc(C)nc(SCc2nnc(SCC(=O)N3CCCc4ccccc43)n2C)n1,inactive: > 76.9 µM
12,COc1cc(C#N)ccc1OCC(=O)c1ccc2c(c1)OCCO2,inactive: > 76.9 µM
13,CCOc1ccccc1N1CCN(S(=O)(=O)c2cccs2)CC1,inactive: > 76.9 µM
14,Cc1cc(C)n(-c2ccc(C(=O)NCc3cccs3)cc2)n1,inactive: > 76.9 µM
15,O=C(COc1ccc(F)cc1)NC1CC1,inactive: > 76.9 µM
16,CCOc1ccccc1C1CC(=O)Nc2cc3c(cc21)OCO3 (stereo not given),inactive: > 76.9 µM
17,COCCNS(=O)(=O)c1ccc(SC)cc1,inactive: > 76.9 µM
18,O=C(COc1ccccc1)c1cn(CC(=O)N2CCOCC2)c2ccccc12,inactive: > 76.9 µM
19,CN(C)c1nc(SCC#N)nc(N(C)C)n1,inactive: > 76.9 µM
20,CCn1c2ccccc2c2nnc(SCC(=O)N3CC(C)OC(C)C3)nc21 (stereo not given),inactive: > 76.9 µM
21,Clc1ccccc1-c1nc(-c2ccccc2)n[nH]1,inactive: > 76.9 µM
22,O=c1cc[nH]c2cc(C(F)(F)F)ccc12,inactive: > 76.9 µM
23,O=C(Cn1cnc2ccccc2c1=O)NCc1ccco1,inactive: > 76.9 µM

row,Structure (SMILES),Potency
1,Cc1noc(C)c1COC(=O)c1ccccc1NC(=O)Cc1ccccc1,inactive: > 76.9 µM
2,COc1ccccc1-c1nnc(NC(=O)c2ccc(S(=O)(=O)N(C)Cc3ccccc3)cc2)o1,inactive: > 76.9 µM
3,Cc1cc(CN2CCN(CCC#N)CC2)c(O)c(C2(C)CCCCC2)c1,inactive: > 76.9 µM
4,Cc1cc(C)n(-c2ccc(F)cc2)c(=O)c1C(=O)O,inactive: > 76.9 µM
5,COc1cccc(-n2nnc3c(=O)n(Cc4ccc(Br)cc4)cnc32)c1,inactive: > 76.9 µM
6,O=C(Cn1nnc(-c2cccc(C(F)(F)F)c2)n1)NC1CCCC1,inactive: > 76.9 µM
7,C=CCn1c(SCCN2CCOCC2)nc2c1c(=O)[nH]c(=O)n2C,inactive: > 76.9 µM
8,CCOc1cccc2cc(-c3csc(NC(=O)CCC(=O)N4CCN(C)CC4)n3)c(=O)oc12,active: 12.4 µM
9,Cc1cc2c(c(=O)n1CCN(C)C)C(c1ccccc1Br)C(C#N)=C(N)O2 (stereo not given),inactive: > 76.9 µM
10,O=C(O)c1cc(Cl)ccc1NC(=O)C1CCCO1 (stereo not given),inactive: > 76.9 µM
11,O=c1[nH]c2cc3c(cc2cc1CN(CCCO)Cc1nnnn1Cc1ccc(F)cc1)OCO3,inactive: > 76.9 µM
12,CC(C)(C)n1nnnc1CN1CCN(C2CCCC2)CC1,inactive: > 76.9 µM
13,NC(=O)c1ccccc1N/C=C/C(=O)c1ccccc1,inactive: > 76.9 µM
14,Cc1cc(C)nc(N2CCC(C(=O)NCc3cccs3)CC2)n1,inactive: > 76.9 µM
15,CCOc1cccc(/C(O)=C2/C(=O)C(=O)N(Cc3ccco3)C2c2ccncc2)c1 (stereo not given),inactive: > 76.9 µM
16,CCn1ncc(Cl)c1C(=O)Nc1ccncc1,inactive: > 76.9 µM
17,Cc1nc2cc(C(=O)OCC(=O)N(CC(C)C)C3CCS(=O)(=O)C3)ccc2n1-c1ccccc1 (stereo not given),inactive
18,CCOC(=O)N1CCN(C(=O)Nc2ccc3oc(C)nc3c2)CC1,inactive: > 76.9 µM
19,CCN(CC)S(=O)(=O)c1ccc2c(c1)c(=O)c(C(=O)NCCN(C)CCc1ccccc1)cn2C,active: 5.58 µM
20,Cc1cc(C(=O)OCC(=O)c2c(N)n(C)c(=O)n(C)c2=O)c(C)n1-c1ccccc1,inactive: > 76.9 µM
21,COC(=O)c1ccc(CN2C(=O)NC3(CCC(C)CC3)C2=O)o1 (stereo not given),inactive: > 76.9 µM
22,COc1ccc(CCNc2oc(Cc3cccc4ccccc34)nc2C#N)cc1OC,inactive: > 76.9 µM
23,CCSC1=C(C#N)C(c2ccccc2C)CC(=O)N1 (stereo not given),inactive: > 76.9 µM

row,Structure (SMILES),Potency
1,Cc1ccc(NC(=O)C2CCCN(S(=O)(=O)c3cccs3)C2)cc1 (stereo not given),inactive: > 76.9 µM
2,Cc1cc(C)n(-c2nnc3n2N=C(c2ccccc2)CS3)n1,inactive: > 76.9 µM
3,CCc1nc2ccccc2c(NC(=O)CN2CCC(C)CC2)c1C,inactive: > 76.9 µM
4,Cc1ccccc1-n1nnnc1SCc1csc(-c2ccccc2)n1,inactive: > 76.9 µM
5,COc1ccc(NC(=O)CCc2nc(-c3ccc(C)cc3)no2)c(OC)c1,inactive: > 76.9 µM
6,COc1cc2c(cc1OC)CN(C(=O)c1cccs1)CC2,inactive: > 76.9 µM
7,CC1=CC(C)(C)N2C(=O)C3(C(C#N)=C(N)Oc4cc(O)ccc43)c3cccc1c32 (stereo not given),inactive: > 76.9 µM
8,Fc1ccc(-c2nnc(CSc3nnc(-c4ccc5c(c4)OCO5)o3)o2)cc1,inactive: > 76.9 µM
9,COC(=O)c1cc(NC(=O)C2CC=CCC2C(=O)O)cc(C(=O)OC)c1 (stereo not given),inactive: > 76.9 µM
10,Cn1nnnc1SCC(=O)N1CCN(C(c2ccccc2)c2ccccc2)CC1,inactive: > 76.9 µM
11,CN(Cc1nc(-c2ccccn2)no1)S(=O)(=O)c1ccccc1,inactive: > 76.9 µM
12,CCC(c1nnnn1Cc1ccco1)N(CCN1CCOCC1)Cc1cc2cc(C)ccc2[nH]c1=O (stereo not given),inactive: > 76.9 µM
13,CN(c1cccc(NC(=O)Nc2cccc(Cl)c2)c1)S(C)(=O)=O,inactive: > 76.9 µM
14,Cc1c(NC(=O)c2c(F)cccc2F)c(=O)n(-c2ccccc2)n1C,inactive: > 76.9 µM
15,COc1ccc(Cl)cc1N(C)C(=O)CCc1nc(-c2ccc(C)cc2)no1,inactive: > 76.9 µM
16,CCOC(=O)N1CCN(C(=O)c2cc(Cl)c(Cl)cc2C(=O)O)CC1,inactive: > 76.9 µM
17,COc1ccc(CN(C(=O)CSc2nnc(-c3ccccc3F)o2)c2ccc(F)cc2)cc1,inactive: > 76.9 µM
18,CCc1ccc(NC(=O)CCN2C(=O)c3cccnc3C2=O)cc1,inactive: > 76.9 µM
19,O=C1CCCc2nc(N3CCN(c4ccccc4)CC3)ncc21,inactive: > 76.9 µM
20,Cc1cc(=O)[nH]c(SCc2cc(Cl)ccc2OC(F)F)n1,inactive: > 76.9 µM
21,O=C(O)c1cc(NC(=O)C2CCCO2)cc(NC(=O)C2CCCO2)c1 (stereo not given),inactive: > 76.9 µM
22,Cc1cc2nc(-c3ccc(NC(=O)c4cccnc4)cc3)oc2cc1C,inactive: > 76.9 µM
23,CCOC(=O)N1CCC(NC(=O)CCS(=O)(=O)c2ccc3c(c2)CCN3C(=O)CC)CC1,inactive: > 76.9 µM

row,Structure (SMILES),Potency
1,O=C(NCC1CCCO1)c1ccc(NC(=O)C2CCCCC2C(=O)O)cc1 (stereo not given),inactive: > 76.9 µM
2,COc1ccccc1OC(=O)C1CC(=O)N(c2ccc(Cl)cc2)C1 (stereo not given),inactive: > 76.9 µM
3,CCOC(=O)C1=C(C)NC(SCC(=O)O)=NC1c1ccccc1 (stereo not given),inactive: > 76.9 µM
4,O=C(NCc1ccncc1)c1cccc(Cn2cc(Br)cn2)c1,inactive: > 76.9 µM
5,O=C(CCn1c(=O)sc2ccccc21)NCc1ccco1,inactive: > 76.9 µM
6,CCN(CC)CCCN1C(=O)C(O)=C(C(=O)c2ccc(C)o2)C1c1ccco1 (stereo not given),inactive: > 76.9 µM
7,Cc1ccc(NC(=O)Cn2nnc(C(=O)NCc3cccs3)c2N)cc1,inactive: > 76.9 µM
8,Cc1ccc(OCCC(=O)Nc2c(C)n(C)n(-c3ccccc3)c2=O)cc1,inactive: > 76.9 µM
9,O=S(=O)(NCc1cccnc1)c1cc(Cl)ccc1Cl,inactive: > 76.9 µM
10,CCn1c(COc2ccccc2)nnc1SCC(=O)NC1CCCCC1,inactive: > 76.9 µM
11,COC(=O)Cn1nnc(-c2cccc(OC)c2)n1,inactive: > 76.9 µM
12,COc1ccc(C(=O)COC(=O)CSCc2c(C)noc2C)cc1OC,inactive: > 76.9 µM
13,O=C(c1cccc(S(=O)(=O)N2CCCC2)c1)N1CCN(c2ccccc2F)CC1,inactive: > 76.9 µM
14,Cc1[nH]c2ccc(-c3nnc(SCC(=O)c4ccccc4F)o3)cc2c1C,inactive: > 76.9 µM
15,CN(C)Cc1cc(CCNC(=O)c2ccc(Cl)cc2)ccc1O,inactive
16,CCc1nnc(NC(=O)CSc2nc3cccnc3n2C2CCCCC2)s1,inactive
17,Cc1cc(C(=O)CSc2nnc(-c3ccccc3)n2-c2ccccc2)c(C)n1-c1ncn[nH]1,inactive: > 76.9 µM
18,O=C(c1sccc1-n1cccc1)N1CCCC1,inactive: > 76.9 µM
19,CC(C)C(OC(=O)c1cc2sccc2n1C)C(=O)NCC1CCCO1 (stereo not given),inactive: > 76.9 µM
20,COc1cccc(NC(=O)N2CCN(C(=O)C(Cc3ccc(OC)c(OC)c3)NC(C)=O)CC2)c1 (stereo not given),inactive: > 76.9 µM
21,COc1ccc(-c2nnc(NC(=O)c3ccc(S(=O)(=O)N4CCCc5ccccc54)cc3)o2)cc1,inactive: > 76.9 µM
